Data taken from the RNAGym collection of RNA variant scans (doi:10.1073/pnas.2313332121).
This sample is rich in variants without activity.

B1: TPR 5TU (parent)
chain: GGAUCUUCUCGAUCUAACAAAAAAGACAAAUCUGCCACAAAGCUUGAGAGCAUCUUCGGAUGCAGAGGCGGCAGCCUUCGGUGGCGCGAUAGCGCCAACGUUCUCAACUAUGACACGCAAAACGCGUGCUCCGUUGAAUGGAGUUUAUCAUG

Variants of: B1
Experiment: polymerase ribozyme fitness, log enrichment relative to wild type (log ratio); higher = more active; in vitro selection for triplet polymerase activity
How it was run: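 Genotype fitness is the logarithm of its enrichment divided by wild-type enrichment, using inverse-variance-weighted averages of replicates. That logarithm is base 2. Enrichment was measured by Illumina sequencing of input and output libraries from one triplicate in vitro selection round, with frozen incubation at −7 °C, on PCR-built, transcribed mutant libraries of each subunit of a heterodimeric triplet polymerase ribozyme, retaining genotypes with ≥10 input reads and ≥1 read per output.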

Variant	polymerase ribozyme fitness (log ratio)
C14G A37U A64C U111G	≤ -4.2
C14G A39C A52G C95U A142C U144G	≤ -4.2
C14G A39G U53A C54U C93A	≤ -4.2
C14G A39U A49G C54G C75G G83U U148C A150U G152A	≤ -4.2
C14G A39U G74C G81U C87U C103G G126A G133C G152U	≤ -4.2
C14G A39U U44G G58U A120U C123U G143C	≤ -4.2
C14G A39U U55G C95U	≤ -4.2
C14G A40C A73U G83U C114U A142U	≤ -4.2
C14G A40C C57G	-2.31
C14G A40C G42C G48A G86U G92U C99A	≤ -4.2
C14G A40C G48U C131A G133A	≤ -4.2
C14G A40G A73G C85U U139A	≤ -4.2
C14G A47C C85G C95U U139C U148G	≤ -4.2
C14G A47G A52C A64G C87A G126A	≤ -4.2
C14G A49C U78G G84A C96U C125U	≤ -4.2
C14G A52C A98G C103G	≤ -4.2
C14G A52C G58A C96U C125G	-3.92
C14G A60U G86U	≤ -4.2
C14G A64C A73U U144G	≤ -4.2
C14G A64C G70C C114A A122C	≤ -4.2
C14G A66U C69A	≤ -4.2

Variant	polymerase ribozyme fitness (log ratio)
C14G A73C G92C C96U C118U G143A A147C U148C	≤ -4.2
C14G A73G C85A A97G G117U A119G G133A A138U C149U G152U	≤ -4.2
C14G A73U G84C C87A G124C	≤ -4.2
C14G A89U C99A A107C	≤ -4.2
C14G A91G	≤ -4.2
C14G A91U	≤ -4.2
C14G A91U G136C	≤ -4.2
C14G A97U A98G	-2.74
C14G A107G	≤ -4.2
C14G A137U	≤ -4.2
C14G C18G A52C U77C C87A A106G U146C	≤ -4.2
C14G C18G C51G C75G A107C G140U	≤ -4.2
C14G C18U C51A C79U G84C U109A C123G U144G	≤ -4.2
C14G C18U U144C	-2.22
C14G C27A C93A A150C	≤ -4.2
C14G C27G A37U A40U G133C	≤ -4.2
C14G C27G A52C G83U G86C A91C G92A C96A G112C	≤ -4.2
C14G C27G C43G G68U G80C U101C	≤ -4.2
C14G C27G U55G G68A U82A G94C A107U A142G	≤ -4.2
C14G C32A G59C G70A	≤ -4.2
C14G C32G A52C A97U	≤ -4.2

Variant	polymerase ribozyme fitness (log ratio)
C14G C35A A60G U130C U134C	≤ -4.2
C14G C35A G42C A66G C96G G117U	≤ -4.2
C14G C35U G42C A52U C75A C79G G92C C118U G140C	-4.09
C14G C36U U45A A49G U53G G58C C95U	≤ -4.2
C14G C36U U55G G68U C93G U134A	≤ -4.2
C14G C38U C75G G83U A106U G141A U144G	≤ -4.2
C14G C43A U44A G92U A98G A121C	≤ -4.2
C14G C43G C51U C93U C149A	≤ -4.2
C14G C51U G92A G112C	≤ -4.2
C14G C54A C76A G84A	≤ -4.2
C14G C54G G68C C85U C105A C114A A137U	≤ -4.2
C14G C57U G86U A147G	≤ -4.2
C14G C69A G70A A138C	≤ -4.2
C14G C72U	-3.04
C14G C75A G84U	-4.14
C14G C75G G94A	≤ -4.2
C14G C75U	-2.58
C14G C79U G94C U101G C118A G141A A150U	≤ -4.2
C14G C85U	-2.1
C14G C85U C96U A113C A122U G143A	≤ -4.2
C14G C85U C103U	-3.1

Variant	polymerase ribozyme fitness (log ratio)
C14G C87A C93A	≤ -4.2
C14G C87A U146G	≤ -4.2
C14G C87U G141A	-2.56
C14G C93U	-3.66
C14G C93U G140A U144C	≤ -4.2
C14G C95G C96G	-4.07
C14G C96A A107C A150C	≤ -4.2
C14G G25C U44A G68U G81A U139A G143A U146C	≤ -4.2
C14G G25U A49U G88C C125A	≤ -4.2
C14G G25U C36A U55G G65C C75U G141C	≤ -4.2
C14G G34U C51U G70A C96G	≤ -4.2
C14G G42A G58C U61G A64G C93G C99G A106G U145A	≤ -4.2
C14G G42C C79A G86U A89C G152A	≤ -4.2
C14G G42C G70A G88C U127C	≤ -4.2
C14G G42U C87G	≤ -4.2
C14G G42U G83C C108A G133U U146G	≤ -4.2
C14G G46C U61A	≤ -4.2
C14G G48A A119G	-3.43
C14G G48C A49G U53A G92U C93U A107U	≤ -4.2
C14G G48C G59C C93A G141C	≤ -4.2
C14G G48C U146A	-4.06
